In all, about 310,000 compounds went through this assay and about 14,000 (4.5%) showed an effect of 50% or more. The effect is printed as a negative number. The list shows a part of the results.
These compounds were tested against human ether-à-go-go-related gene (hERG) potassium channel (human, UniProt Q12809) (assay: primary screen, population patch clamp on CHO cells stably expressing hERG).
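Further: peak tail current of the secondary pulse compared with the same well before compound.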

Chain of human ether-à-go-go-related gene (hERG) potassium channel (Q12809 whole entry, looked up): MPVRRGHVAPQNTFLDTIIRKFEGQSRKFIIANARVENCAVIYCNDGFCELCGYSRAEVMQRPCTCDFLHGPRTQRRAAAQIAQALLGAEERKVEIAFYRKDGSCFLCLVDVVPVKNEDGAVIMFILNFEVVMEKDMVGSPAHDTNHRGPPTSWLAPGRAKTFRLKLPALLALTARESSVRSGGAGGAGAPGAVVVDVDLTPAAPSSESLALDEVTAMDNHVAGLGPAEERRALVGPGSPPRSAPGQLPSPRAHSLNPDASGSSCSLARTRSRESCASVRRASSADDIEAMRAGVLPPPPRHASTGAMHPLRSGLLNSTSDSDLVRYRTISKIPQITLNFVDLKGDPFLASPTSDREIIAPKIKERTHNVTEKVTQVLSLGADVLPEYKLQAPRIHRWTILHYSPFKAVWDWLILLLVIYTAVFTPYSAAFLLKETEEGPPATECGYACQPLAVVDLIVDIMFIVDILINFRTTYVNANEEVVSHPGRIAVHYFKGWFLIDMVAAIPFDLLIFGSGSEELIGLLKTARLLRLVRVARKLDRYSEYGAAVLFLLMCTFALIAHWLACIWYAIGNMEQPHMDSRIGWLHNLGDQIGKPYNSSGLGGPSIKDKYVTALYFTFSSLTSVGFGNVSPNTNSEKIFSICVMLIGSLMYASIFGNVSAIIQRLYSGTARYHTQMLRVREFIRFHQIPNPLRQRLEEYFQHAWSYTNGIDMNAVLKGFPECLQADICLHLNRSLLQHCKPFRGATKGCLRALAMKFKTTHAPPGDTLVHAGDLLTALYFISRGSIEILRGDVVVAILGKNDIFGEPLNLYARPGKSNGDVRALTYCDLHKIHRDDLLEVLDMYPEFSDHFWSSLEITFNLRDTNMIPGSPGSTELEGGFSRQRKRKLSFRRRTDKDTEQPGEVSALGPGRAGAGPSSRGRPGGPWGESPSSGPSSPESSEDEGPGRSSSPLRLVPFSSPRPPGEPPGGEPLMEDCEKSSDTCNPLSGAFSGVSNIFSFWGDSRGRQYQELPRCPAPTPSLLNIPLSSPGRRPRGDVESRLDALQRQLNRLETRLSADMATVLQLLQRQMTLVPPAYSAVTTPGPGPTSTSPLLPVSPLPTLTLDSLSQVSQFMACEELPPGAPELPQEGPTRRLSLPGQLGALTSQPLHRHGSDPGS

| SMILES | hERG current change (%, negative = inhibition) at 10uM [%] |
| --- | --- |
| CCOCCCNC(=O)C1(O)c2cc(Br)ccc2NC(=O)N1c1ccc(C)c(C)c1 (centres unmarked) | 3.18 |
| O=C(O)c1cccnc1C(=O)c1ccccc1 | 3.79 |
| Cc1[nH]c2ccccc2c1CC#N | 16 |
| O=[N+]([O-])c1ccc(S(=O)(=O)Nc2ccccn2)cc1 | 15.2 |
| CC(C)(C)C1CCc2c(sc(NC(=O)c3cccs3)c2C(=O)N2CCCCC2)C1 (centres unmarked) | 7.32 |
| CC1(c2ccc3noc(-c4ccccc4)c3c2)OCCO1 | 4.9 |
| CCOc1ccc(NC(=O)CCCN2C(=O)C(c3ccccc3)Oc3cccnc32)cc1 (centres unmarked) | 17.5 |
| Oc1ccc2ccccc2c1C=Nc1ccc(N2CCOCC2)cc1 | 3.04 |
| Cc1ccc(S(=O)(=O)N(C)CCCC(=O)Nc2cc(C)ccc2C)cc1 | -29.9 |
| Cc1ccc(/C=N/NC(=O)C(NC(=O)c2ccccc2)c2n[nH]c(=O)c3ccccc23)cc1 (centres unmarked) | -2.54 |
| O=C(CCC(=O)c1ccc(F)cc1)OC1CCOC1=O (centres unmarked) | -8.34 |
| Cn1c(N)c(S(=O)(=O)N2CCN(c3ccccc3F)CC2)c(=O)n(C)c1=O | 8.63 |
| CC1(OC(=O)C2CCCC2)C(=O)C=C2C=C(c3ccsc3)N(Cc3ccccc3)C=C2C1=O (centres unmarked) | -52.5 |
| Cc1ccc(CNC(=O)c2cc3c(s2)CS(=O)(=O)C3)cc1 | 5.77 |
| C#CCN1C(=O)C2(OCCO2)c2ccccc21 | 21.1 |
| COc1ccc(CCNC(=O)c2ccc3c(c2)NC(=O)C(C(C)C)N3)cc1OC (centres unmarked) | 18.8 |
| CC(C)COc1nc2c(c(=O)n(C)c(=O)n2C)n1C | -7.61 |
| COc1cc(C(=O)NCCCOC(C)C)ccc1OC1CCN(C(C)=O)CC1 | 23 |
| CCOc1ccc(/C(O)=C2/C(=O)C(=O)N(c3ncccn3)C2c2ccc(C)cc2)cc1 (centres unmarked) | 6.78 |
| CCOC(=O)c1c(NC(=O)Cn2nc(C(=O)O)c3ccccc3c2=O)sc(C)c1C | 7.67 |
| CC(C)C(=O)Nc1ccc(NC(=O)c2cccc3c(Br)cccc23)cc1 | 19.2 |
| Cc1cc(C)c(S(N)(=O)=O)c(C)c1N(C)S(=O)(=O)c1ccc(Cl)cc1 | -41.8 |

| SMILES | hERG current change (%, negative = inhibition) at 10uM [%] |
| --- | --- |
| Cc1ccc(OCCn2cc(/C=C3\C(=O)NN(c4ccccc4)C3=O)c3ccccc32)cc1 | 11.7 |
| Cc1nc(C(F)(F)F)c(C(=O)N/N=C(\N)c2cccnc2)s1 | 32.5 |
| O=C(Nc1cccc(S(=O)(=O)N2CCOCC2)c1)c1ccc(N2CCOCC2)c([N+](=O)[O-])c1 | -18.1 |
| Cc1ccc(N(CC(=O)NCC2CCCO2)C(=O)CCC(=O)Nc2nccs2)cc1C (centres unmarked) | 21.7 |
| Cc1cccc(C(C)Nc2ccc([N+](=O)[O-])cn2)c1 (centres unmarked) | -68.9 |
| CCOc1ccc(C(=O)NC2CCN(C(=O)Nc3ccccc3OC)CC2)cc1 | 14.6 |
| CN1CCc2c(sc3c2C(=O)NC(c2ccco2)N3)C1 (centres unmarked) | -0.786 |
| O=S(=O)(c1c(F)cccc1F)N1CCN(Cc2c(O)ccc3ccccc23)CC1 | -1.29 |
| COc1cc(CN2CCCC(C(=O)c3sccc3C)C2)cc(OC)c1O (centres unmarked) | -47.8 |
| COC(=O)c1cc(=O)nc2sc(-c3ccc(F)cc3)nn12 | -1.86 |
| O=C(c1c[nH]c(C(=O)C(Cl)(Cl)Cl)c1)c1ccccc1F | 15.8 |
| Fc1ccc(-c2nnc(-n3nnc4ccccc43)c3ccccc23)cc1 | 2.8 |
| Cn1nc(C(F)(F)F)c(C(=O)Nc2ccc(F)cc2F)c1Sc1cccc(Cl)c1 | -4.65 |
| COc1ccc(CN2CCNC(=O)C2CC(=O)N(C)Cc2nccs2)c(OC)c1 (centres unmarked) | -5.95 |
| COCCNC(=O)C1CC2Cn3c(nc4cc(Cl)c(Cl)cc43)C2N1C (centres unmarked) | -26.5 |
| O=C(CCC(=O)N1CCCC1)Nc1nnc(C2CCCCC2)s1 | -3.22 |
| Cc1ccc(Cl)cc1N1CCN(C(=O)c2noc(C(C)C)c2[N+](=O)[O-])CC1 | 11.7 |
| COc1ccc(NC(=O)[C@@H](NC(=O)c2ccccc2)C(C)C)cc1S(=O)(=O)N1CCCCC1 | -5.89 |
| O=c1c2c(n3cnnc3n1-c1ccccc1)-c1ccccc1CC21CCCC1 | 6.25 |
| CC(=O)Nc1ccc(-c2csc(NC(=O)CN3C(=O)NC4(CCCC4)C3=O)n2)cc1 | 24.3 |
| O=c1c(/C=C(\O)c2ccccc2)nc2ccccc2n1-c1ccccc1 | 10.4 |
| O=C(N/N=C/c1ccc(Br)s1)c1cccnc1 | -5.72 |

| SMILES | hERG current change (%, negative = inhibition) at 10uM [%] |
| --- | --- |
| CN(C)S(=O)(=O)c1ccc(/C(O)=C2/C(=O)C(=O)N(Cc3cccnc3)C2c2ccco2)cc1 (centres unmarked) | 5.35 |
| COc1cc(C2NC(=O)NC(C)=C2C(=O)OC(C)(C)C)ccc1OCC(=O)O (centres unmarked) | 20.4 |
| CCc1cc(C(=O)OC)c(NC(=O)c2ccoc2C)s1 | 18.5 |
| Cn1ncc(N=Cc2ccccc2O)c1C(=O)Nc1ccccc1 | -1.94 |
| CC(NC(=O)CSc1ccccc1)c1ccccc1 (centres unmarked) | 26.3 |
| COc1cc(NC(=S)Nc2ccccn2)cc(OC)c1OC | 4.65 |
| CC(C)Sc1nc(SCC(=O)NCc2ccco2)c2c3c(sc2n1)COC(C)(C)C3 | 16.3 |
| CCN1CCN(c2ncc3c(n2)CC(c2ccc(OC)c(OC)c2)CC3=O)CC1 (centres unmarked) | -16.2 |
| CNc1nc(-c2ccc(OC)cc2)c(-c2ccc(OC)cc2)s1 | -12.7 |
| Cc1ccc(OCC(=O)N2CCN(C(=O)c3ccco3)CC2)cc1 | -37.7 |
| O=C(O)COc1ccccc1/C=N/NC(=O)CSc1nc2ccccc2c(=O)n1-c1ccc(Cl)cc1 | 13.2 |
| Cc1ccc(-n2c(SCC(=O)Nc3ncc(Cl)cc3Cl)nc3ccccc32)cc1 | 6.45 |
| O=C(NCC1CCCO1)c1ccc(NC(=O)c2cc(F)c(F)cc2Cl)cc1 (centres unmarked) | -3.36 |
| NC(=O)C1(N2CCCCC2)CCN(C(=S)Nc2ccc(F)c(Cl)c2)CC1 | -4.18 |
| CC(=O)Nc1ccc(S(=O)(=O)N2CCC(N3CCCCC3)CC2)cc1 | 14.7 |
| CCN1CCCC1CNS(=O)(=O)c1ccc(C(=O)Nc2ccccc2)cc1 (centres unmarked) | -10.4 |
| COc1ccccc1C(=O)COC(=O)CCCN=C1NS(=O)(=O)c2ccccc21 | 4.48 |
| CCCCn1c(NCc2ccc3c(c2)OCO3)nc2ccccc21 | -61 |
| CC(C(=O)N(C)C)N1c2cccc3cccc(c23)S1(=O)=O (centres unmarked) | 15.2 |
| Cn1cnc2c1c(=O)[nH]c(=O)n2Cc1ccccc1 | 4.04 |
| O=C(c1cc2c(s1)CCCC2)N1CCN(S(=O)(=O)c2ccccc2C(F)(F)F)CC1 | 6.23 |
| O=C(NC1CCCCC1)c1ccc(CN2CCOCC2)cc1 | -3.94 |

| SMILES | hERG current change (%, negative = inhibition) at 10uM [%] |
| --- | --- |
| Cc1ccc(NC(=O)c2cn(CCC#N)nc2-c2ccc3c(c2)OCCO3)c([N+](=O)[O-])c1 | -33.9 |
| Cc1ccc(S(=O)(=O)N2CCOCC2)cc1C(=O)NCCN1C(=O)S/C(=C\c2ccccc2Cl)C1=O | -10.2 |
| CCOC(=O)CSc1nc2sc3c(c2c(=O)n1C1CCCCC1)CCN(C)C3 | -12.5 |
| C=CCn1c(CCSCc2ccc(OC)c(C)c2)n[nH]c1=S | 9.36 |
| O=C(NC(=S)Nc1ccc(F)c([N+](=O)[O-])c1)c1ccccc1F | 16.5 |
| CCN(C(=O)CCS(=O)(=O)c1ccc(Br)cc1)c1ccc2c(c1)OCO2 | -43.8 |
| CN(CC(=O)Nc1ccccc1C(F)(F)F)C(=O)c1ccc2c(=O)n3c(nc2c1)CCC3 | -8.67 |
| Cc1ccc(CS(=O)(=O)c2cn(CC(=O)N3CCOCC3)c3ccccc23)cc1 | 4.8 |
| CC(C)Oc1ccc(C(=O)OCC(=O)NC(=O)NC2CCCC2)cc1 | -1.95 |
| CC1CCCN(C(=O)COC(=O)CNC(=O)c2sc3ccccc3c2Cl)C1 (centres unmarked) | -2.36 |
| COc1ccc2c(n1)Sc1nc3ccccc3nc1N2 | 16.9 |
| NC(=O)COC(=O)c1sc2ccccc2c1Cl | 24.3 |
| CC(=O)c1c(C)[nH]c(C(=O)OCC(=O)Nc2ccccc2Cl)c1C | -0.866 |
| CN(C)CCNC(=O)CNC(=S)N(Cc1ccccc1)Cc1cccnc1 | 0.623 |
| CCN1C(=O)CC(c2ccc(OC(C)C)cc2)C1=O (centres unmarked) | 16.9 |
| CCC(C)c1ccc(NC(=O)C2CCCN(c3ncccn3)C2)cc1 (centres unmarked) | -7.55 |
| O=C(CN1CC(=O)Oc2ccccc21)NCc1ccco1 | 15.2 |
| CC(NC(=O)CN1C(=O)NC2(CCc3ccccc32)C1=O)c1ccccc1 (centres unmarked) | 2.81 |
| Cc1ccc(-n2nc3c(=O)n(CCCC(=O)N4CCC(C)CC4)nc(C)c3c2C)cc1 | -30.1 |
| Cc1cc(C)cc(OCC(=O)OCC(=O)Nc2cc(C)nn2-c2ccccc2)c1 | 17.3 |

Source: PMC4336329 (PLoS ONE, 2015)
